Over roughly 33,000 sequences, “E-score (-0.5 to 0.5)” has its median near -0.016; the highest 2% begin near 0.32. Some of the results follow.
molecular target: T1, Stp1 (UniProt B3LFK1); assay: PBM E-score (8-mer binding enrichment) (E-score (-0.5 to 0.5)); higher = stronger / more preferred TF binding; most listed sequences are background and not binding sites; settings: protein concentration: 200 nM; construct: GST-full length
T1 sequence: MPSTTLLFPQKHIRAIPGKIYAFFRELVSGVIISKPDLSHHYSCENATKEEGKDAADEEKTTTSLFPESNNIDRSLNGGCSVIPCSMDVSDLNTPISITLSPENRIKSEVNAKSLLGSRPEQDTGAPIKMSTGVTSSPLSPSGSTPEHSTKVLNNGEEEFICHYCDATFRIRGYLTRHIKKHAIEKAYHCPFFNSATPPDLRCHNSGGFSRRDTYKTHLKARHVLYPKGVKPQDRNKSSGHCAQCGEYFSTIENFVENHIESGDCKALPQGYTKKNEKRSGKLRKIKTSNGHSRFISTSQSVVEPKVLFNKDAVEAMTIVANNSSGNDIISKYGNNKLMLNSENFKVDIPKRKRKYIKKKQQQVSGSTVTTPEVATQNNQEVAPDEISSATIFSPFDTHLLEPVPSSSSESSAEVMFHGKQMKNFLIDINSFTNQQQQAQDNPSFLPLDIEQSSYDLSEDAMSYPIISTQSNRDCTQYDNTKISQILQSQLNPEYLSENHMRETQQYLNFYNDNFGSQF
Procedure, shortened: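 Bound GST-tagged yeast transcription factors, applied at about 100-200 nM to double-stranded universal all-10-mer Agilent arrays, were detected with fluorescent anti-GST. Scans were normalised with masliner. A modified Wilcoxon-Mann-Whitney statistic, the E-score, was assigned to each ungapped eight-base word pooled with its reverse complement by the Universal PBM Analysis Suite.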

| Sequence | PBM E-score |
| --- | --- |
| CCGGTTCA | -0.218 |
| CGTCCGGC | 0.154 |
| GCAAATAC | 0.0493 |
| AATGCTCT | 0.0301 |
| CCCTCCTA | -0.188 |
| ACGAAGCA | -0.0696 |
| ATATCGAG | 0.123 |
| GACTGAGC | -0.038 |
| CATCATAC | 0.136 |
| GGGGTCGA | -0.0941 |
| ATTATCGA | -0.0447 |
| AAGCATAG | -0.135 |
| ACAGTTGG | -0.0665 |
| AATGTTTG | -0.0926 |
| GATGGAAC | -0.1 |
| AGAGTTAC | -0.232 |
| CATTATAA | 0.0479 |
| GCCTAGTA | -0.0735 |
| GAAAGCTC | -0.3 |
| CAGCCAGA | -0.172 |
| AGAGAGGC | -0.0773 |
| AAAAGAGT | -0.145 |
| CGTATGCA | 0.255 |
| CCCATACG | -0.00599 |

| Sequence | PBM E-score |
| --- | --- |
| AATTGTCA | 0.176 |
| CGGGGCCC | -0.175 |
| CAATATTG | 0.051 |
| AGATTCAA | 0.12 |
| AACATGCT | -0.029 |
| GTAACGAA | 0.11 |
| TAGACAGA | -0.00937 |
| ACCGATTG | 0.111 |
| TGCTCAAA | 0.0414 |
| GCTCTTAC | 0.00089 |
| CCGCGGTA | 0.143 |
| CAACGAGA | 0.0401 |
| TCTAGTCA | -0.0914 |
| CTGGCATA | 0.0913 |
| CAACGAGG | 0.175 |
| CATAAGCC | -0.0492 |
| CACCACGC | -0.0336 |
| GAGGGTCA | -0.326 |
| GTACATGA | 0.117 |
| CCAATACG | 0.146 |
| GACACGGA | 0.315 |
| GACCTACA | -0.0949 |
| AAGAAATT | 0.173 |
| AGAACGCT | -0.11 |

| Sequence | PBM E-score |
| --- | --- |
| AAGCGTGG | -0.0843 |
| GGATTACC | -0.148 |
| TGTGACAA | -0.0199 |
| GATAGGAA | -0.0617 |
| ACTTCAGC | -0.235 |
| CTGCAATA | 0.0565 |
| GAGATACA | 0.224 |
| AGGATCAG | -0.0864 |
| CTTACCCA | -0.125 |
| TTCCAGAA | 0.094 |
| CGTATCAC | 0.0898 |
| CATTGTAC | -0.0426 |
| AAAACGGA | 0.201 |
| ATCCTAAG | -0.137 |
| ACAGCAAC | 0.15 |
| GTTTCCTA | 0.0458 |
| CAGCGGGG | -0.0996 |
| GATACAAA | 0.153 |
| CATGGTAG | -0.0639 |
| AAAGACGT | -0.116 |
| AATGAGGA | -0.299 |
| ACAGCATC | -0.129 |
| CTGACGAC | -0.167 |
| ATATGTTA | -0.114 |

| Sequence | PBM E-score |
| --- | --- |
| TACCCTGA | -0.0306 |
| CTTGCAAG | 0.27 |
| ATAGCGTA | 0.162 |
| AAACGATA | 0.0578 |
| ATTTTAGG | 0.0943 |
| ATGGGAAG | -0.152 |
| AACTTGTG | 0.0481 |
| AGAATCTA | 0.0588 |
| CGTCCAAA | 0.273 |
| ACGTTCCC | -0.286 |
| ATTAATTG | 0.0803 |
| CCAATAGC | -0.248 |
| CTGGACAG | -0.168 |
| CACACCTC | -0.138 |
| AGCAAGAC | 0.126 |
| ACTTGTCA | 0.0629 |
| AAAAGTAG | 0.171 |
| CGGAGGAC | -0.253 |
| AACGGGTA | 0.194 |
| AGAGTGAG | -0.0432 |
| CACCGACA | 0.0706 |
| CTTGCGTA | 0.0422 |
